The list shows a part of the results. Read counts after selection give these values, which scatter widely. Scores sum up all selected molecules that hold the word; the word was not tested alone.
Each sequence was assayed on IMP3 KH1-2 (assay: 6-mer SELEX enrichment z-score vs GST control; IMP3 is the RNA-binding protein IGF2BP3; higher = more enriched by binding). Conditions: construct: KH1-2 (164-376); SELEX round: R4.
Description: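 SELEX-seq with GST-tagged IMP3 KH1-2 (Pro164-Phe376) and an N40 RNA pool, round 4 (stringent 300/600 mM KCl washes). 6-mer z-score of sequence-tag enrichment normalised to the corresponding GST SELEX round; RNA k-mers written as DNA (T for U).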

IMP3 KH1-2, sequence (chain, as listed by the source): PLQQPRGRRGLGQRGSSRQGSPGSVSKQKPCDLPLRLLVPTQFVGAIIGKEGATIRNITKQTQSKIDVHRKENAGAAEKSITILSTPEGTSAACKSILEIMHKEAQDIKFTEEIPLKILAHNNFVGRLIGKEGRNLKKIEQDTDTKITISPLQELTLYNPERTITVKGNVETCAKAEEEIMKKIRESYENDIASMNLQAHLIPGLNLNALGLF

Row | Sequence | 6-mer SELEX enrichment z-score
1 | CTTCCC | -0.345
2 | AGAACT | 0.154
3 | AATTCA | 1.71
4 | TCGCCA | 0.454
5 | CGTGGC | -0.337
6 | TTGACA | -0.074
7 | ATCTAA | -0.005
8 | CGAGTT | -0.815
9 | CTTCCT | 0.622
10 | TCCCTC | -0.006
11 | TCTGTA | 0.306
12 | TTGTTT | 0.266
13 | GCTCGT | -0.326
14 | ACATAC | 2.53
15 | GTGGCG | 0.505
16 | AAGACA | 0.433
17 | GCAAGC | -0.032
18 | AAAAGT | -0.802
19 | GATACC | -1.11
20 | AGCTTA | -0.448

Row | Sequence | 6-mer SELEX enrichment z-score
21 | TTCTCC | 0.532
22 | TATCCA | -0.736
23 | CTTTTC | 0.887
24 | ATGTGT | 0.229
25 | TTCCTC | 0.908
26 | TTTGCT | 0.408
27 | GGATGA | 0.64
28 | CAACCT | -0.836
29 | CAACAT | 1.77
30 | AAGTCG | 0.399
31 | ATGGCT | 0.387
32 | CTGTGC | -0.061
33 | CGTGAC | -0.699
34 | CCTTAC | -0.162
35 | ACACCA | 0.615
36 | TGTAAG | 0.114
37 | TAAGGA | 0.444
38 | TTCATA | 2
39 | CGTTGG | -0.326
40 | TCTAAT | 0.427

From the supplement of paper PMC6531468
